The whole screen tested about 420,000 compounds, of which about 64,000 (15%) were called active. The shares of active, inactive and inconclusive entries below differ from those in the screen. Calls follow the shape of the dose curve; as a rule, active = well fitted inhibition curve with a large enough effect; inconclusive = small, poorly fitted or top-dose-only effect; inactive = flat fitted curve, though single readings scatter. Potencies of inconclusive entries are left out as doubtful fits.
Experiment: qHTS for Inhibitors of human tyrosyl-DNA phosphodiesterase 1 (TDP1): qHTS in cells in absence of CPT; also: nearly all actives have a fitted effect of over 55% in size
Details: DT40 Tdp1-/- hTDP1 cells, no CPT, ATP luminescence, 48 h; activity change, negative = growth inhibition: at 46.2 µM (top of the series) unless noted
Method in brief: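 Growth of hTDP1-complemented DT40 Tdp1-knockout cells is measured by ATP luminescence after at least 48 hr compound exposure at 37 °C, with DMSO substituting for the 20 nM CPT used in the parallel screen.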
% is scaled to controls: 0 for no effect and ±100 for the full control effect; potency is read from the fitted curve at half-maximal effect; tags tell the direction and shape of the fitted curve.

Row | SMILES | Potency | activity change, negative = growth inhibition
1 | C=CCN1C(=O)C2(OCCCO2)c2cccc(Cl)c21 | inactive | –
2 | COCC(=O)OCC(=O)Nc1ccccc1-c1ccccc1 | inactive | –
3 | Cc1cccc(NC(=S)N(CCN(C)C)Cc2cc3cc(C)cc(C)c3[nH]c2=O)c1 | inconclusive [inhibitor, partial curve, poor fit] | –
4 | CCOC(=O)c1c(C)c(C(=O)NC2CCCCC2)c(C)n1CC | inconclusive [inhibitor, partial curve, poor fit] | –
5 | CCCCC(=O)Nc1cccc(-c2cn3ccsc3n2)c1 | – | inconclusive: -36.9% [inhibitor]
6 | O=C(Nc1nc(-c2ccccn2)cs1)c1ccccc1-n1cnnn1 | inconclusive [inhibitor, full curve, poor fit] | –
7 | COc1ccccc1NS(=O)(=O)c1ccc2oc(SCC(C)=O)nc2c1 | inconclusive [inhibitor, partial curve, poor fit] | –
8 | O=C(CSc1nc(-c2ccco2)cc(C(F)(F)F)n1)NCCCN1CCOCC1 | inactive | –
9 | O=C(O)CN=CC1=C(O)CC(c2ccccc2)CC1=O (configuration not stated) | inactive | –
10 | COc1ccc(-n2c(SCC(=O)N3CCCC(C)C3)nnc2-c2cccnc2)cc1 (configuration not stated) | inconclusive [inhibitor, partial curve] | –
11 | NC(=O)C1CC(=O)N(c2ccc(OCc3ccc(F)cc3)cc2)C1 (configuration not stated) | inactive | –
12 | COc1cc2nc(NCC3CCCO3)n3nc(-c4cccnc4)nc3c2cc1OC (configuration not stated) | active: 20.6 µM | –
13 | CCN(CC)C(=O)Cn1cc(C(=O)C(=O)NCc2ccccn2)c2ccccc21 | inactive | –
14 | O=C(Cn1nc(CNc2ccc(Br)cc2)[n+]2c1CCCCC2)c1ccc([N+](=O)[O-])cc1 | active: 11.6 µM | –
15 | O=C(CCc1nnc(CCCCc2ccccc2)o1)NCCC1CCCCO1 (configuration not stated) | inconclusive [inhibitor, single point] | –
16 | NS(=O)(=O)c1ccc(NC(=O)C(Sc2ccccc2)c2ccccc2)cc1 (configuration not stated) | inconclusive [inhibitor, single point] | –
17 | COc1ccc([C@H]2N[C@]3(CCCN(Cc4ccc(Br)cc4)C3=O)[C@H]3C(=O)N(C)C(=O)[C@@H]23)cc1 | inconclusive [inhibitor, single point] | –
18 | Cc1nn(C)c(C)c1CN(C)S(=O)(=O)c1ccc2ccccc2c1 | active: 1.26 µM | –
19 | Cc1ccc(S(=O)(=O)N(C)c2ccc(OCC(=O)NC3=NCCS3)cc2)cc1 | inactive | –
20 | CN(C(=O)CN1C(=O)c2cc(Cl)c(Cl)cc2C1=O)C1CCS(=O)(=O)C1 (configuration not stated) | inactive | –
21 | CN(C)c1ccc(CN(Cc2ccco2)C(=O)COc2ccc(F)cc2)cc1 | active: 10.3 µM | –
22 | O=C(COC(=O)c1cccc(S(=O)(=O)N2CCc3ccccc32)c1)Nc1ncc(Cl)cc1Cl | inconclusive [inhibitor, single point] | –
23 | Nc1nc2nc(-c3ccc(OCc4ccccc4)cc3)cc(C(F)(F)F)n2n1 | inactive | –
24 | Cc1ccc2oc(C(=O)Nc3nnc(C)s3)c(C)c2c1 | inconclusive [inhibitor, partial curve] | –

Row | SMILES | Potency | activity change, negative = growth inhibition
25 | CCS(=O)(=O)N1Cc2ccccc2CC1C(=O)NCCc1ccccc1 (configuration not stated) | inactive | –
26 | COc1cc(CC(=O)N(C)CC(=O)Nc2ccc(Cl)c(C(F)(F)F)c2)cc(OC)c1OC | inconclusive [inhibitor, single point] | –
27 | COc1ccc(C(=O)Nc2ccc(NC(=O)c3cccs3)cc2)cc1OC | active: 18.4 µM | –
28 | COC(=O)CCS(=O)(=O)c1nc(-c2ccccc2)cc(C(F)(F)F)n1 | active: 2.31 µM | –
29 | CSc1n[nH]c(-c2ccc(C(F)(F)F)cc2)n1 | inconclusive [inhibitor, partial curve, poor fit] | –
30 | COC(Cc1ccccc1N1CCCC1=O)OC | inactive | –
31 | COc1ccccc1CCNC(=O)C(=O)NCC(c1ccco1)S(=O)(=O)c1cccs1 (configuration not stated) | inconclusive [inhibitor, single point] | –
32 | CCOC(=O)N1CCN(S(=O)(=O)c2ccc(F)c(C(=O)Nc3ccc(C(C)C)cc3)c2)CC1 | active: 18.4 µM | –
33 | O=C(c1ccc(-c2nc3ccccc3s2)s1)N1CCOCC1 | inconclusive [inhibitor, single point] | –
34 | COC(C[C@H](O)CC(=O)COCc1ccccc1)OC | inactive | –
35 | Nc1cc(S(=O)(=O)Nc2ccc(Br)cc2)ccc1Cl | inconclusive [inhibitor, single point] | –
36 | CCOc1ccc2[nH]c(=O)c(CN(Cc3ccccc3)C(=O)N3CCCC3)cc2c1 | inconclusive [inhibitor, single point] | –
37 | CCOc1ccc(CCNC(=O)COC(=O)/C=C/c2ccccc2OC)cc1OCC | inconclusive [inhibitor, single point] | –
38 | NNC(=O)c1sccc1OCc1ccc(F)cc1 | inconclusive [inhibitor, single point] | –
39 | COc1ccc(C(=S)N2CCOCC2)cc1OS(=O)(=O)c1ccccc1[N+](=O)[O-] | – | inconclusive: -33.3% [inhibitor]
40 | CCS(=O)(=O)c1nc(S(=O)(=O)c2ccc(C)cc2)c(N2CC(C)OC(C)C2)s1 (configuration not stated) | inconclusive [inhibitor, single point] | –
41 | CCOc1ccccc1Nc1ccnc2cc(Cl)ccc12 | active: 23.1 µM | –
42 | CCOCCc1nn2c(=O)cc(COC(=O)c3ccccc3NC(=O)c3ccccc3F)nc2s1 | inactive | –
43 | O=C1NC(c2ccccc2)=C(c2nc3ccccc3s2)C(c2ccc(F)cc2)N1 (configuration not stated) | inconclusive [inhibitor, single point] | –
44 | COc1ccccc1CCn1c(=O)c(C)nc2cncnc21 | inconclusive [inhibitor, single point] | –
45 | O=C(NCC(c1cccnc1)N1CCN(c2ccccc2F)CC1)c1ccco1 (configuration not stated) | active: 23.1 µM | –
46 | CC1(C)CC2C1CC[C@]1(C)CCC3C(C(=O)O)CC(=O)O[C@]32C1 (some centres not stated) | inconclusive [inhibitor, single point] | –
47 | Cc1ccc(C)c(NS(=O)(=O)c2cc(C(=O)N3CCc4ccccc4C3)ccc2Cl)c1 | inconclusive [inhibitor, single point] | –

— PubChem BioAssay AID686978 (National Center for Advancing Translational Sciences (NCATS), 2013)
